Data on 31 molecules can be found in the antibiotic and cytotoxicity screens of Wong et al. (2023).

Some of the results follow.

This experiment has as its system HepG2. Kind of experiment: cytotoxicity call (relative viability < 0.9). The conditions noted are these: 10 µM.
Regarding `CC(C)NC(=O)Nc1cccc2c1O[C@H](CN(C)S(=O)(=O)c1cccs1)[C@@H](C)CN([C@H](C)CO)C2=O`, the cytotoxicity call is “inactive”.
As to `CCS(=O)(=O)CCn1c([N+](=O)[O-])cnc1C`, the cytotoxicity call is “active”.
The value for `C[C@H](CO)N1C[C@H](C)[C@@H](CN(C)C(=O)Nc2ccccc2C(F)(F)F)OCc2ccccc2-c2c(n(C)c3ccccc23)C1=O` was “active”; that for `Cc1noc(C)c1S(=O)(=O)N(C)C[C@@H]1Oc2ccc(NS(C)(=O)=O)cc2C(=O)N([C@@H](C)CO)C[C@@H]1C` was “inactive”.
Under `CC1=NC[C@H](O)[C@@H](C(=O)O)N1` stands “inactive”; under `C[C@H](CO)N1C[C@H](C)[C@@H](CN(C)S(=O)(=O)c2ccc(-n3cccn3)cc2)OCc2cnnn2CCCC1=O`, “inactive”.
For the molecule `Nc1nc(N)c2nc(CNc3ccc(C(=O)NC(CCC(=O)O)C(=O)O)cc3)cnc2n1` (stereo unspecified), the cytotoxicity call is “active”.
Under `O=c1[nH]c2ccsc2c(=O)n1CCO` stands “inactive”.
In the case of `C[C@@H]1CCCCO[C@@H](CN(C)C(=O)Nc2cccc3ccccc23)[C@H](C)CN([C@H](C)CO)C(=O)c2cc(NS(=O)(=O)c3cn(C)cn3)ccc2O1`, the cytotoxicity call is “inactive”.
Under `CCOc1oc(C(=O)NC2CCCCC2)c(-c2ccc(Cl)cc2)c1S(=O)(=O)c1ccc(Cl)cc1` stands “inactive”; under `C[C@H](CO)N1C[C@H](C)[C@H](CN(C)C(=O)Nc2ccccc2)Oc2ccc(NC(=O)CCN3CCOCC3)cc2C1=O`, “inactive”; under `C[C@H](CO)N1C[C@H](C)[C@H](CN(C)C(=O)Nc2ccc(F)cc2)Oc2ccc(NC(=O)C3CC3)cc2CC1=O`, “inactive”.
Under `C[C@H]1CN([C@@H](C)CO)C(=O)Cc2cc(NC(=O)c3ccncc3)ccc2O[C@@H]1CN(C)S(=O)(=O)c1ccc(Cl)cc1` stands “inactive”; under `CC(C)NC(=O)Nc1ccc2c(c1)C(=O)N([C@H](C)CO)C[C@H](C)[C@@H](CN(C)S(C)(=O)=O)OCCCC[C@@H](C)O2`, “inactive”; under `Cc1noc(C)c1S(=O)(=O)Nc1cccc2c1O[C@@H](CN(C)S(=O)(=O)c1ccc(Cl)cc1)[C@@H](C)CN([C@@H](C)CO)C2=O`, “inactive”.
The value for `CC(C)CC#Cc1cnc2c(c1)C(=O)N([C@H](C)CO)C[C@@H](C)[C@H](CN(C)C(=O)c1ccc3c(c1)OCO3)O2` was “inactive”.
With `Cc1noc(C)c1NC(=O)N(C)C[C@@H]1Oc2c(NC(=O)Nc3cccc4ccccc34)cccc2C(=O)N([C@@H](C)CO)C[C@@H]1C`, the cytotoxicity call is “inactive”.
`C=CCC[C@H](Cc1ccc(F)cc1)C(=O)O[C@@H](CNC(=O)[C@@H](CC=C)CC(=O)N[C@@H](CO)Cc1ccccc1)c1ccccc1`: the cytotoxicity call is “inactive”.
The value for `O=C(c1cccnc1)N1C[C@@H]2[C@H](c3ccccc31)[C@@H](CO)N2C(=O)CN1CCOCC1` was “inactive”; that for `C=CCC[C@@H](Cc1ccc(F)cc1)C(=O)OC[C@@H](NC(=O)[C@@H](CC=C)CC(=O)N(CCO)Cc1ccccc1)c1ccccc1` was “active”; that for `O.O.OCC1OC(OC2OC(CO)C(O)C(O)C2O)C(O)C(O)C1O` (stereo unspecified) was “inactive”.
The value for `C[C@@H]1CN([C@@H](C)CO)C(=O)c2cc(NC(=O)Cc3ccccc3)ccc2O[C@@H]1CN(C)Cc1ccc(Cl)c(Cl)c1` was “inactive”; that for `C[C@H]1CN([C@@H](C)CO)C(=O)Cc2cc(NC(=O)NC3CCCCC3)ccc2O[C@H]1CN(C)S(=O)(=O)c1cn(C)cn1` was “inactive”.
With `COc1ccc(CN(C)C[C@H]2OCCCC[C@@H](C)Oc3ccc(NC(=O)CCC(F)(F)F)cc3C(=O)N([C@H](C)CO)C[C@H]2C)cc1`, the cytotoxicity call was “inactive”.
`C[C@@H]1CN([C@H](C)CO)C(=O)c2cc(N(C)C)ccc2O[C@H]1CN(C)S(=O)(=O)c1ccc(Cl)cc1`: the cytotoxicity call is “inactive”.
Turning to `COCC#Cc1ccc2c(c1)O[C@H](CN(C)C(=O)C1CCOCC1)[C@H](C)CN([C@H](C)CO)S2(=O)=O`, the cytotoxicity call was “inactive”.
In the case of `O=C(C[C@H]1CC[C@@H]2[C@H](COC[C@@H](O)CN2S(=O)(=O)c2ccccc2)O1)N[C@@H]1CCN(Cc2ccccc2)C1`, the cytotoxicity call is “inactive”.
Under `O=C(C[C@H]1C[C@H]2c3cc(NC(=O)Cc4ccncc4)ccc3O[C@H]2[C@@H](CO)O1)NCCN1CCCCC1` stands “inactive”; under `COc1ccc(NC(=O)Nc2ccc3c(c2)C(=O)N([C@H](C)CO)C[C@H](C)[C@@H](CN(C)Cc2ccncc2)OCCCC[C@H](C)O3)cc1`, “inactive”; under `C[C@@H]1CN([C@@H](C)CO)C(=O)c2cccc(NC(=O)c3cnccn3)c2O[C@H]1CN(C)S(=O)(=O)c1cccs1`, “inactive”.
The value for `CC(C)(O)c1cn(-c2ccc(-c3cc(F)c(CO)c(S(C)(=O)=O)c3)cc2F)c(C(C)(C)c2c(Cl)cccc2Cl)n1` was “inactive”.
